Test results reported in PMC4336329 (PLoS ONE, 2015).
Among all 310,000 compounds or so, about 14,000 (4.5%) showed an effect of 50% or more. Effects have a minus sign here. Some of the results follow.

These compounds were tested against human ether-à-go-go-related gene (hERG) potassium channel (human, UniProt Q12809) (assay: primary screen, population patch clamp on CHO cells stably expressing hERG).
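Note: peak tail current of the secondary pulse compared with the same well before compound.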

Chain of human ether-à-go-go-related gene (hERG) potassium channel (Q12809 whole entry, looked up): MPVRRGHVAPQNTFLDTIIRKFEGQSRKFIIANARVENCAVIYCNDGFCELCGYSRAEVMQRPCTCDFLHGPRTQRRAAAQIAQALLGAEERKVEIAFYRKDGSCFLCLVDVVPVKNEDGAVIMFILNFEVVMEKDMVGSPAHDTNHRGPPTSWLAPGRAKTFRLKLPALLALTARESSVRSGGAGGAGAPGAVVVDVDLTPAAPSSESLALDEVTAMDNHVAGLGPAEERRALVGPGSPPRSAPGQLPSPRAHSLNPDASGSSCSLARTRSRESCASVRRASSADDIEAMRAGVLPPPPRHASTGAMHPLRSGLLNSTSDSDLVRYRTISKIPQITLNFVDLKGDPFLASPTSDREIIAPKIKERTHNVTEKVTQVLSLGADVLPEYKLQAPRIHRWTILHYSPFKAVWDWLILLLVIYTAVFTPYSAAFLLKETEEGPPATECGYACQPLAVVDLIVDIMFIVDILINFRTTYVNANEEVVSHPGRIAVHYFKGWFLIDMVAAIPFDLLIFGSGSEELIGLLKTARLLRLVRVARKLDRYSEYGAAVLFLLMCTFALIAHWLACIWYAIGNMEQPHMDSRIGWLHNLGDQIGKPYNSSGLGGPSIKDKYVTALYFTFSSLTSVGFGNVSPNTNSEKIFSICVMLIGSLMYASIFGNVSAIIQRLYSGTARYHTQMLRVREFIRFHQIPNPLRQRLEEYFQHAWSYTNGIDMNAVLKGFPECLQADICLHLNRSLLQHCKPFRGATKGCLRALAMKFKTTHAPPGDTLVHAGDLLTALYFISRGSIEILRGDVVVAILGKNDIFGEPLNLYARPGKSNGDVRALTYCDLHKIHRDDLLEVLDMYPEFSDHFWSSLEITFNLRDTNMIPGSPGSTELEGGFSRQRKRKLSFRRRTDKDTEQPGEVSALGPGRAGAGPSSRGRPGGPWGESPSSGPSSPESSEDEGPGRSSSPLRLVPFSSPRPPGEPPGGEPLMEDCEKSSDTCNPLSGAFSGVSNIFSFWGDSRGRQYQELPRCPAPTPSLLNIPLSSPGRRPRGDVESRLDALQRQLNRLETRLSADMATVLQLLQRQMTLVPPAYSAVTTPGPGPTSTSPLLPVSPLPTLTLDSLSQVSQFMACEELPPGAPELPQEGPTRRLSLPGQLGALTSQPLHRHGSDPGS

Q: `O=C(NCCOc1cccnc1)c1ccc(OC2CCN(Cc3ccccn3)CC2)cc1` was tested. Which “hERG current change (%, negative = inhibition) at 10uM” value did it give?
A: 9.86%

Q: How did the “hERG current change (%, negative = inhibition) at 10uM” value turn out when `Cc1ccc(/C=N/N2CCN(Cc3ccccc3)CC2)o1.Cl` was run?
A: 10.8%

Q: Which “hERG current change (%, negative = inhibition) at 10uM” value does the source give for `O=c1onc(-c2ccccc2)n1-c1cc(Cl)cc(Cl)c1` here?
A: -2.13%

Q: For `CC(=O)NC(CC(=O)Nc1nc(-c2ccc(N(C)S(C)(=O)=O)cc2)cs1)c1ccccc1` (centres unmarked), which “hERG current change (%, negative = inhibition) at 10uM” value is on record?
A: 24.5%

Q: With `CC1=CN2C(=N)/C(=C/c3ccc([N+](=O)[O-])o3)C(=O)N=C2S1` as the compound, how does the “hERG current change (%, negative = inhibition) at 10uM” value read?
A: 17%

Q: With `CCCOc1ccc(Cc2c(O)nc(N)[nH]c2=O)cc1C` as the compound, how does the “hERG current change (%, negative = inhibition) at 10uM” value read?
A: 15.9%

Q: `O=C(N/N=C/c1c(O)n(CCc2ccc(F)cc2)c(=O)[nH]c1=O)c1ccncc1` was tested. Which “hERG current change (%, negative = inhibition) at 10uM” value did it give?
A: 2.13%

Q: For `Cc1ccc(C(=O)C(OC(=O)CNC(=O)c2ccc(Cl)cc2)c2ccccc2)cc1` (centres unmarked), which “hERG current change (%, negative = inhibition) at 10uM” value is on record?
A: 2.15%

Q: With `COc1ccc(/C=N/NC(=O)CC#N)cc1Oc1nc(Cl)ncc1F` as the compound, how does the “hERG current change (%, negative = inhibition) at 10uM” value read?
A: 9.22%

Q: How did the “hERG current change (%, negative = inhibition) at 10uM” value turn out when `C/C(Cn1nnc([N+](=O)[O-])n1)=N\NC(=O)c1ccccc1O` was run?
A: 10.7%

Q: How did the “hERG current change (%, negative = inhibition) at 10uM” value turn out when `CCC(C)[C@H](NC(=O)NCc1ccc(F)cc1)C(=O)O` (some centres unmarked) was run?
A: 9.31%

Q: With `O=C1CC(N2CCN(C/C=C/c3ccccc3)CC2)C(=O)N1CCc1ccccc1` (centres unmarked) as the compound, how does the “hERG current change (%, negative = inhibition) at 10uM” value read?
A: -58.1%

Q: `CN(CC(=O)Nc1ccc(Cl)c(S(=O)(=O)N2CCOCC2)c1)C(=O)c1cccs1` was tested. Which “hERG current change (%, negative = inhibition) at 10uM” value did it give?
A: -44.2%

Q: `CCOC(=O)CN1C(=O)N[C@@H](c2ccccc2)[C@H](C(C)=O)[C@H]1C` was tested. Which “hERG current change (%, negative = inhibition) at 10uM” value did it give?
A: 11.2%

Q: `Cc1cc(=O)oc(C)c1C(=O)N[C@@H](Cc1ccccc1)C(=O)O` was tested. Which “hERG current change (%, negative = inhibition) at 10uM” value did it give?
A: 16.9%

Q: Which “hERG current change (%, negative = inhibition) at 10uM” value does the source give for `CCOC(=O)N1CCN(C(=O)c2cc(COc3ccc4ncccc4c3)on2)CC1` here?
A: -5.07%

Q: With `Cc1ccc(OCC(=O)Nc2ccc(O)c(C(=O)O)c2)cc1C` as the compound, how does the “hERG current change (%, negative = inhibition) at 10uM” value read?
A: 2.85%

Q: How did the “hERG current change (%, negative = inhibition) at 10uM” value turn out when `Cc1cc(NC(=O)COC(=O)c2cccc(O)c2)no1` was run?
A: 11.5%

Q: `CCOC(=O)C(NCc1ccc(OC)cc1)(NC(C)=O)C(F)(F)F` (centres unmarked) was tested. Which “hERG current change (%, negative = inhibition) at 10uM” value did it give?
A: -4.47%

Q: `Cc1c(Cl)c(=O)oc2cc(OC(C)C)ccc12` was tested. Which “hERG current change (%, negative = inhibition) at 10uM” value did it give?
A: -4.39%

Q: Which “hERG current change (%, negative = inhibition) at 10uM” value does the source give for `COc1ccc(C(=O)NCCc2nnc(SCc3nc4ccccc4c(=O)[nH]3)n2C)cc1` here?
A: -1.24%

Q: Which “hERG current change (%, negative = inhibition) at 10uM” value does the source give for `CN(CC(=O)Nc1ccccc1Br)C(=O)CNC(=O)C1CCCCC1` here?
A: 14.6%

Q: With `Cc1onc(-c2c(F)cccc2Cl)c1C(=O)Nc1sc2c(c1C#N)CCC(C(C)(C)C)C2` (centres unmarked) as the compound, how does the “hERG current change (%, negative = inhibition) at 10uM” value read?
A: 23.4%

Q: Which “hERG current change (%, negative = inhibition) at 10uM” value does the source give for `Cc1c(Cl)cccc1NC(=O)CCC(=O)NNC(=O)CCC(=O)O` here?
A: 20.4%

Q: `CCOC(=O)C1CCN(C(=O)COC(=O)c2cc(-c3cccs3)nn2-c2ccccc2)CC1` was tested. Which “hERG current change (%, negative = inhibition) at 10uM” value did it give?
A: -49.3%

Q: `CC(C)c1cc(C(=O)O)c2ccccc2n1` was tested. Which “hERG current change (%, negative = inhibition) at 10uM” value did it give?
A: -8.14%
